Test results published in the supplement of paper PMC3334620.
The full ranking holds about 33,000 sequences; the median of “E-score (-0.5 to 0.5)” is about -0.036, and the highest 2% start at about 0.37. The list shows a part of the results.

molecular target: T1, Yer064c (UniProt P40041); assay: PBM E-score (8-mer binding enrichment) (E-score (-0.5 to 0.5)); higher = stronger / more preferred TF binding; most listed sequences are background and not binding sites; settings: protein concentration: 200 nM; construct: GST-full length
T1 sequence: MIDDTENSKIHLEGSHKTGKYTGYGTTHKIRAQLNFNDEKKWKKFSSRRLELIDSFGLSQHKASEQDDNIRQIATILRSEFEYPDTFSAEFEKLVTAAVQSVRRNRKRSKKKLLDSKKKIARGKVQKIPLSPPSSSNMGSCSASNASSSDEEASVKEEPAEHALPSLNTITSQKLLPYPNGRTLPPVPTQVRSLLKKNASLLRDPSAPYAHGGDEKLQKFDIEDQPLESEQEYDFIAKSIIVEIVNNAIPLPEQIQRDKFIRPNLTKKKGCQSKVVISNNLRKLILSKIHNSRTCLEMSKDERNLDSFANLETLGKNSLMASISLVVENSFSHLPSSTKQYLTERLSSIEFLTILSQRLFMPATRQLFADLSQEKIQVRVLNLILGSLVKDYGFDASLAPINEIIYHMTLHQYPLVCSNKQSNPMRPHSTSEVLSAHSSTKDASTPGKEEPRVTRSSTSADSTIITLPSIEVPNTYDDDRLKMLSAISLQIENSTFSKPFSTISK
Procedure, shortened: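 Masliner-normalised scans of fluorescent anti-GST signal were the basis for scoring. That signal came from GST-tagged yeast transcription factors applied at about 100-200 nM to double-stranded universal all-10-mer Agilent arrays on fresh or once-stripped slides. Each ungapped eight-base word, pooled with its reverse complement, received an E-score from the Universal PBM Analysis Suite.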

Sequence | PBM E-score
AGTGGATA | -0.123
GATTTTAC | 0.129
ACTTGAGC | 0.171
ACATGAGT | 0.375
CCTATATC | -0.169
AATTCCTC | -0.172
GTCGTGGA | 0.142
CTCGAAGC | -0.046
CGAAATAG | 0.0501
ACCAGGAG | -0.209
ACAAGACC | -0.213
AAGTAGAA | -0.0919
AGAGGTAC | -0.211
TCTGCGCA | -0.129
CTCATAAG | 0.231
CGTCCGAC | 0.0463
CATCCCCC | -0.301
GGAACGAC | -0.00931
GACGAAGC | -0.0864
GCCGCGAA | -0.216
CTAATAGA | 0.0502
ATATAGTA | 0.128
GATCTTGC | -0.194
CGACCAGA | 0.00591
ATCAGTTG | 0.157

Sequence | PBM E-score
CTTCCATC | -0.0977
GAGCGATC | -0.205
TCGGCAAA | -0.171
ATCGCACG | -0.0772
GACATAGC | -0.0869
AAGCGCGA | 0.0607
ATCGGGGC | -0.221
ACCAAGGA | 0.00799
AATAGACT | 0.262
ACTCTCCC | 0.129
ATAACCCC | -0.111
CCGTGTAC | -0.137
CAGTACTA | 0.094
CCGAACGG | -0.0813
CTCCACAA | -0.009
CTAAAGGA | 0.0288
GGGTAGGA | 0.0126
ATTTTTTG | 0.0826
GCCCAAAA | -0.036
AGTGGCAA | 0.0137
ATAAGTCG | 0.223
AACCCTCC | -0.341
AGGAGACT | 0.331
AACGTTGG | -0.0221
CACGCTCA | 0.166

Sequence | PBM E-score
ATGTGCGA | 0.0392
CGTGCGCC | -0.229
ATGGCGGA | -0.121
ATTGGTCC | -0.109
CACCAAGA | -0.059
GCGGATAC | 0.11
AGGACCGC | -0.218
GAAATTTC | -0.5
GAGTACTA | 0.337
CGACTACA | 0.351
AGCTATAG | -0.185
AGCAAAGA | -0.0486
GGGGGTAC | -0.0892
AGTTGAAT | 0.109
AAAGAGCT | -0.0281
CAGCTCGC | -0.0272
CTGAAAGC | -0.0517
ATGGACTG | 0.0718
TCCACCAA | 0.00825
AATTTCTC | 0.0426
CGACAACC | -0.131
AACCAAGA | 0.0436
AAGGGATA | -0.153
GCAAGCGA | -0.0499
GATTTATA | 0.215

Sequence | PBM E-score
CTGGCTAC | 0.0972
CGGGCTGC | -0.0918
ATGTGTCA | 0.224
CACATATG | 0.0245
ACAATCCT | -0.167
AACCCTGC | -0.0666
CGTAGCTA | -0.0295
ACCCGCCC | 0.00329
AACTCTGG | -0.0715
GTACCTAA | -0.00197
AATAATCC | 0.0648
TATCCACA | -0.0336
CTATGGAC | -0.0339
ACGTCTTG | -0.147
ATTGCTGG | -0.0212
AGTTTCCA | -0.00668
AACATACA | -0.0748
CGGCTTAA | 0.0628
ACCGTGCG | 0.0224
GTTCCTCA | -0.165
AGCAATAG | -0.217
AGAGGCTA | -0.253
GTAGGCAA | -0.112
ACGTCGTG | 0.0944
GATCTACC | 0.0641

Sequence | PBM E-score
CCCCACAG | -0.113
GACTCCTA | 0.443
AGCGTATG | -0.0255
AGCATCGC | -0.239
AAACGTTG | -0.292
CCCGGGTA | 0.00097
CTTAGAAG | 0.0289
AACGACTT | 0.177
CATTCTAC | -0.179
CAGTCATG | 0.458
CAATACTA | 0.0776
CCAATAGA | -0.0567
ACATTCTA | 0.0824
AACCGTGC | -0.0656
CGATACCA | -0.128
GGGTATAA | -0.108
CTGACTAA | 0.48
CGGTAGCC | 0.0131
GAAGAATC | 0.228
CTGTATCA | -0.0383
AGTGGGAA | 0.0388
ATTGTTGG | 0.0194
CAGTTCGA | -0.145
CACTCTGA | 0.0392
CCGGGTAA | -0.0414

Sequence | PBM E-score
GACTACCA | 0.413
CGAGCCCC | -0.252
GAGGCTGC | -0.246
AGCACTAG | 0.012
GCAGATAC | -0.0953
CTGATATA | -0.047
GTTCATCA | 0.0863
CGATCACC | -0.0685
ACGACTCT | 0.404
CTGCGAAA | 0.0209
CTGTAGTA | 0.13
AGCTGACT | 0.458
CATCTGGA | -0.073
GATTTTTA | 0.17
CCTTCGAG | -0.261
CCGGCGTA | -0.104
AACGTGCA | -0.112
GATAGCCC | -0.233
ACGCAACT | -0.0859
CTTGGATC | -0.153
CGGTGGAA | -0.214
AGGGAAAG | -0.163
CAAGTCAG | 0.306
AACTTAAG | 0.0989
GAAGATAA | 0.181

Sequence | PBM E-score
GAACTGCC | -0.214
ATGGAGTC | 0.398
GACCGATA | -0.139
ATCTGCGA | -0.018
CCCGATCG | -0.117
ACTGTGGA | 0.0507
AGGGAGGA | -0.18
GATCCGCC | -0.041
GTCGAGCA | -0.135
CGCCTGAC | -0.0144
ATTCCCTG | 0.0224
CCGCCTAG | -0.168
AATGGTCC | -0.0322
AGCAGTAG | -0.114
GTAGCTAC | -0.0525
AAGCGCAA | -0.136
AGACCAGA | 0.0297
ATTGCTAA | 0.058
CACATTAG | 0.142
CGGAACTA | -0.16
GGATATCC | -0.314
AGACGACT | 0.397
